Laboratory results taken from PubChem BioAssay AID588855 (National Center for Advancing Translational Sciences (NCATS), 2011).
In all, about 410,000 compounds went through this assay and about 5,000 (1.2%) were called active. The shares of active, inactive and inconclusive entries below differ from those in the screen. Calls come from the whole dose curve; as a rule, active = well fitted inhibition curve with a large enough effect; inconclusive = small, poorly fitted or top-dose-only effect; inactive = no such curve, though single readings can be large or run the other way. Potencies beside an inconclusive call are fits to weak or partial responses and may not hold up.

Assay: qHTS for Inhibitors of TGF-b; note: nearly all actives have a fitted effect of over 65% in size
Conditions: HepG2 CAGA-GFP TGF-b/SMAD3 reporter, GFP fluorescence, 18 h, TGF-beta stimulated, 500 pg/mL final; series mostly up to 46.1 µM
In short: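 Using HEPG2 CAGA-GFP reporter cells at 1000 cells/well, we pinned test compounds, stimulated with recombinant TGF-beta (500 pg/mL final) and measured total well GFP after 18 h.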
Potency is the fitted concentration of half-maximal effect; tags give direction and shape of the fitted curve.

**Q.** Which Potency does the source give for `CCC(C)C1/C=C\CC(NC(=O)OCC2c3ccccc3-c3ccccc32)CC(=O)N1Cc1ccccc1` (stereo unspecified) here?
**A.** inconclusive: 20 µM [inhibitor, partial curve, poor fit]

**Q.** Which Potency does the source give for `CN1CCN(C(c2ccc(F)cc2)c2nnnn2Cc2cccs2)CC1` (stereo unspecified) here?
**A.** inactive

**Q.** Which Potency does the source give for `COc1ccc(CCNC(=O)c2cc(=O)c3cc(C)c(C)cc3o2)cc1OC` here?
**A.** inconclusive: 17.8 µM [inhibitor, single point]

**Q.** With `O=C1S/C(=C\c2ccc(Cl)cc2)C(=O)N1CCn1cnnn1` as the compound, how does the Potency read?
**A.** inactive

**Q.** Which Potency does the source give for `CCN(CC)C(=O)C1=C(C)N(CCCN2CCCC2=O)C(=O)C(CC(=O)NCCCCc2ccccc2)C1` (stereo unspecified) here?
**A.** inactive

**Q.** With `C#CC(=O)N(c1ccc(OC)cc1OC)C(C(=O)NC1CCCC1)c1cccs1` (stereo unspecified) as the compound, how does the Potency read?
**A.** inconclusive: 10 µM [inhibitor, partial curve, poor fit]

**Q.** Which Potency does the source give for `O=C(Nc1ccc(-c2csc(Nc3ccc(Cl)cc3)n2)cc1)c1cccc(C(F)(F)F)c1` here?
**A.** inconclusive: 35.5 µM [inhibitor, single point]

**Q.** With `Cc1cc(=O)oc2c(C)c(OC(C)C(=O)Nc3ccc(N4CCC(C)CC4)cc3)ccc12` (stereo unspecified) as the compound, how does the Potency read?
**A.** inactive

**Q.** For `Cn1c(=O)c2c(-c3ccc(Cl)cc3)n(CCc3ccccc3)cc2n(C)c1=O`, which Potency is on record?
**A.** inconclusive: 11.2 µM [inhibitor, partial curve, poor fit]

**Q.** For `Cc1ccccc1/C=C/C(=O)c1ccc([N+](=O)[O-])o1`, which Potency is on record?
**A.** active: 3.16 µM

**Q.** With `Cc1cc(C)c(Cn2c(=O)n(CCCC(=O)NCc3ccc4c(c3)OCO4)c(=O)c3sccc32)c(C)c1` as the compound, how does the Potency read?
**A.** inactive

**Q.** Which Potency does the source give for `Cc1ccc(-n2c(N)c(C(N)=O)sc2=S)cc1` here?
**A.** inconclusive: 15.8 µM [inhibitor, single point]

**Q.** Which Potency does the source give for `Cc1ccc(-n2ncc(C(=O)NCc3ccco3)c2C2CCN(C(=O)OC(C)(C)C)CC2)cc1` here?
**A.** inconclusive: 22.4 µM [inhibitor, single point]

**Q.** Which Potency does the source give for `O=C(NCc1cccc(C(F)(F)F)c1)c1cc(-c2ccccc2)nn1CC1CC(c2cccnc2)=NO1` (stereo unspecified) here?
**A.** inconclusive: 35.5 µM [inhibitor, single point]

**Q.** For `CNC(=O)C1CCC(Cn2c(=O)c3sccc3n(CC(=O)N3CCC(C)CC3)c2=O)CC1` (stereo unspecified), which Potency is on record?
**A.** inconclusive: 11.2 µM [inhibitor, partial curve, poor fit]

**Q.** With `O=C(OC(C(=O)Nc1cccc(C(F)(F)F)c1)c1ccccc1)C1CCCCC1` (stereo unspecified) as the compound, how does the Potency read?
**A.** inconclusive: 35.5 µM [inhibitor, single point]

**Q.** For `Cn1c(=O)c(/C=C/c2ccc(F)cc2)nc2ccccc21`, which Potency is on record?
**A.** inconclusive: 1.41 µM [inhibitor, full curve, poor fit]

**Q.** For `Cc1cc(NC(=O)CCN2C(=O)C3C4CCC(C4)C3C2=O)cc(C)c1Br` (stereo unspecified), which Potency is on record?
**A.** inconclusive: 6.31 µM [inhibitor, single point]

**Q.** With `CCN1CCCc2cc(CN(CCN3CCOCC3)C(=O)Nc3ccc(C)c(C)c3)ccc21` as the compound, how does the Potency read?
**A.** inconclusive: 3.98 µM [inhibitor, single point]

**Q.** For `Cc1ccc(NC(=O)OCCN2CCN(S(=O)(=O)c3ccc(C)cc3)CCC2=O)cc1`, which Potency is on record?
**A.** inconclusive: 28.2 µM [inhibitor, single point]

**Q.** With `CCOC(=O)C1=CC[C@@H](c2ccccc2Cl)N(S(=O)(=O)c2ccc(C)cc2)[C@H]1C(=O)OCC` as the compound, how does the Potency read?
**A.** inconclusive: 1.26 µM [inhibitor, full curve, poor fit]

**Q.** For `Cc1ccc(S(=O)(=O)NCCC(=O)Nc2ccc(C)c(Cl)c2)cc1C`, which Potency is on record?
**A.** inconclusive: 22.4 µM [inhibitor, single point]

**Q.** Which Potency does the source give for `CC(C)(C)OC(=O)NCc1ccc(CNC(=O)c2[nH]cnc2C(=O)Nc2ccccc2F)cc1` here?
**A.** inactive

**Q.** Which Potency does the source give for `CCCN1C(=O)S/C(=C\c2ccc(N3CCOCC3)o2)C1=O` here?
**A.** inactive

**Q.** For `O=C1C(Cl)=C(Nc2ccc(O)cc2)C(=O)c2ccccc21`, which Potency is on record?
**A.** inconclusive: 3.55 µM [inhibitor, full curve, poor fit]

**Q.** Which Potency does the source give for `COc1ccc(-n2ncc3c(NCc4ccccn4)ncnc32)cc1` here?
**A.** inconclusive: 10 µM [inhibitor, partial curve]

**Q.** With `CCOC(=O)c1c(NS(=O)(=O)c2cccc(OC)c2)sc2c1CCC2` as the compound, how does the Potency read?
**A.** inconclusive: 35.5 µM [inhibitor, single point]

**Q.** With `CCN(CC(=O)Nc1ccc(NC(C)=O)cc1)C(=O)c1ccc2c(c1)OCO2` as the compound, how does the Potency read?
**A.** inactive

**Q.** For `COc1cc(C#Cc2c(C=O)n(C)c3ccccc23)cc(OC)c1`, which Potency is on record?
**A.** inactive

**Q.** For `Cc1ccccc1OCC(=O)Nc1ccccc1OCc1cc(=O)n2ccccc2n1`, which Potency is on record?
**A.** inactive

**Q.** For `Nc1ccc(C(=O)N/N=C\c2cc(N=Nc3cccc4ccccc34)ccc2O)cc1`, which Potency is on record?
**A.** inactive

**Q.** Which Potency does the source give for `COc1cc(/C=C2/CCc3ccccc3C2=O)cc(OC)c1OC` here?
**A.** inactive

**Q.** Which Potency does the source give for `COc1ccc(CCNC(=O)CCc2c(C)nc3cc(-c4cccc(F)c4)nn3c2C)cc1OC` here?
**A.** inconclusive: 17.8 µM [inhibitor, partial curve, poor fit]

**Q.** With `CC(C)(C)S(=O)(=O)N1Cc2ccc(CO)cc2[C@H]1CCO` as the compound, how does the Potency read?
**A.** inconclusive: 6.31 µM [inhibitor, single point]

**Q.** Which Potency does the source give for `COc1ccc(/C=C/C(=O)Nc2ccncc2)cc1OC` here?
**A.** inactive

**Q.** For `CCCN(CCC)Cc1cc(=O)oc2cc(C)ccc12`, which Potency is on record?
**A.** inconclusive: 3.98 µM [inhibitor, full curve, poor fit]

**Q.** For `CSc1ccccc1NC(=O)NCCCl`, which Potency is on record?
**A.** inconclusive: 0.447 µM [inhibitor, full curve]

**Q.** With `CCC(C)(C)c1nnc(NC(=O)c2cccc([N+](=O)[O-])c2)s1` as the compound, how does the Potency read?
**A.** inactive

**Q.** With `CCN(CCCNC(=O)Cn1ncc2c([nH]c3ccc(C)cc32)c1=O)c1ccccc1` as the compound, how does the Potency read?
**A.** inactive

**Q.** Which Potency does the source give for `CC1CCCN(C(=O)C2CCN(S(=O)(=O)c3ccc4c(c3)CC(C)N4C(=O)C3CC3)CC2)C1` (stereo unspecified) here?
**A.** inconclusive: 2.82 µM [inhibitor, single point]

**Q.** For `COc1ccc(Nc2oc(COc3ccc(Cl)cc3)nc2C#N)cc1`, which Potency is on record?
**A.** inactive

**Q.** For `Cc1cc(OCC(=O)Nc2ccc(S(=O)(=O)NC3=NCCCCC3)cc2)c(C(C)C)cc1Cl`, which Potency is on record?
**A.** inconclusive: 35.5 µM [inhibitor, single point]

**Q.** For `FC(F)(F)c1cccc(Nc2c3c(nc4ccc(Cl)cc24)CCC3)c1`, which Potency is on record?
**A.** active: 17.8 µM

**Q.** With `Cc1ccc(NC(=O)CNC(c2ccccc2)c2ccccc2)c(F)c1` as the compound, how does the Potency read?
**A.** inconclusive: 15.8 µM [inhibitor, single point]

**Q.** Which Potency does the source give for `O=[N+]([O-])c1cccnc1C1OCCO1` here?
**A.** inconclusive: 0.501 µM [inhibitor, partial curve, poor fit]

**Q.** For `CCCCCN1C(C(=O)c2ccccc2)=C(OC(=O)CC)c2ccccc2S1(=O)=O`, which Potency is on record?
**A.** inconclusive: 8.91 µM [inhibitor, partial curve, poor fit]

**Q.** For `CC(C)C[C@H]1CNC(=S)N1C[C@H]1CCCN1C[C@H](Cc1ccc(O)cc1)N1C[C@H](CC(C)C)N(CCc2ccccc2)C1=S`, which Potency is on record?
**A.** inconclusive: 11.2 µM [inhibitor, partial curve, poor fit]

**Q.** For `CSc1ccc(CCNC(=O)Cn2nc(C)n3c(cc4sccc43)c2=O)cc1`, which Potency is on record?
**A.** inconclusive: 17.8 µM [inhibitor, partial curve, poor fit]

**Q.** With `CCN(CC(=O)Nc1ccc(NC(C)=O)cc1)C(=O)Cc1ccc(S(=O)(=O)N2CCOCC2)s1` as the compound, how does the Potency read?
**A.** inactive

**Q.** Which Potency does the source give for `O=C(CSc1nncs1)N1c2ccccc2Sc2ccccc21` here?
**A.** inconclusive: 11.2 µM [inhibitor, partial curve, poor fit]

**Q.** Which Potency does the source give for `CC(=O)Nc1ccc(OCC(O)Cn2c3ccccc3c3ccccc32)c(C)c1` (stereo unspecified) here?
**A.** inconclusive: 17.8 µM [inhibitor, single point]

**Q.** With `CCOc1ccccc1Nc1sc(C(=O)c2ccccc2)c(N)c1C(=O)Nc1ccc(F)cc1` as the compound, how does the Potency read?
**A.** active: 14.1 µM

**Q.** With `COc1ccc(-n2c(SCC(=O)N3CCc4ccccc43)nnc2-c2c[nH]c3ccccc23)cc1` as the compound, how does the Potency read?
**A.** inactive

**Q.** With `CCCS(=O)(=O)NC(=O)C1(C)CCN(C(=O)C2(c3ccc(Cl)cc3)CCCC2)C1` (stereo unspecified) as the compound, how does the Potency read?
**A.** inactive

**Q.** For `CC(C(=O)Nc1ccc(F)cc1Cl)N(C)CCOc1ccccc1` (stereo unspecified), which Potency is on record?
**A.** inactive

**Q.** Which Potency does the source give for `CCN1C(=NCc2ccc(OC)cc2)N[C@@H](c2ccccc2)C(C(=O)OC)=C1C` here?
**A.** inconclusive: 6.31 µM [inhibitor, single point]

**Q.** For `Cc1ccc(Cn2ccnc2SCC(=O)NCc2ccccc2)cc1`, which Potency is on record?
**A.** inconclusive: 10 µM [inhibitor, single point]

**Q.** Which Potency does the source give for `Cc1ccc(NS(=O)(=O)c2ccc(-c3csc(C)n3)s2)c(C)c1` here?
**A.** inconclusive: 35.5 µM [inhibitor, single point]

**Q.** With `COC(=O)c1ccc(CSc2ncnc3c2nnn3-c2ccc(F)cc2)o1` as the compound, how does the Potency read?
**A.** inactive

**Q.** For `COC(=O)c1cc(NC(=O)CN2C(=O)C(=O)N(C3CCCC3)C2=O)cc(C(=O)OC)c1`, which Potency is on record?
**A.** inconclusive: 35.5 µM [inhibitor, partial curve, poor fit]

**Q.** Which Potency does the source give for `Cc1ccc(NC(=O)CSc2nnc(-c3ccccc3)n2C)cc1` here?
**A.** inactive

**Q.** For `Cc1cccc(C)c1NC(=O)CN(C)C(=O)c1ccc(-c2cccc(C(F)(F)F)c2)o1`, which Potency is on record?
**A.** inconclusive: 15.8 µM [inhibitor, partial curve, poor fit]

**Q.** For `Cc1ccccc1N1CCN(C2=NC(=O)/C(=C\c3cccs3)S2)CC1`, which Potency is on record?
**A.** inconclusive: 17.8 µM [inhibitor, single point]

**Q.** With `Cc1ccc(-c2csc(NC(=O)c3ccc(S(=O)(=O)N4CCc5ccccc54)cc3)n2)cc1` as the compound, how does the Potency read?
**A.** inconclusive: 35.5 µM [inhibitor, single point]

**Q.** With `Cc1cccnc1NC(=O)Nc1cccc2ccccc12` as the compound, how does the Potency read?
**A.** inconclusive: 2.82 µM [inhibitor, single point]

**Q.** With `CCOC(=O)c1c(C)oc2ncnc(Nc3cccc(C(F)(F)F)c3)c12` as the compound, how does the Potency read?
**A.** inconclusive: 3.98 µM [inhibitor, single point]
